# Over roughly 110,000 compounds, “z-score” has its median near -0.1; the highest 2% begin near 2. Some of the results follow.
# Biological target: Metabotropic glutamate receptor 8 (Rattus norvegicus) (UniProt P70579)
# Test: rat mGluR8 modulators via GIRK flux, primary screen, cell-based, thallium flux, HTS (AID 488969)
# Details: HEK293 rat mGluR8, GIRK (G protein-gated inwardly rectifying potassium channel) thallium flux, FluoZin2; at 10 µM; stronger effect = higher value; submaximal glutamate (EC20) added with thallium
# Sequence of UniProt P70579 (P70579 whole entry, looked up): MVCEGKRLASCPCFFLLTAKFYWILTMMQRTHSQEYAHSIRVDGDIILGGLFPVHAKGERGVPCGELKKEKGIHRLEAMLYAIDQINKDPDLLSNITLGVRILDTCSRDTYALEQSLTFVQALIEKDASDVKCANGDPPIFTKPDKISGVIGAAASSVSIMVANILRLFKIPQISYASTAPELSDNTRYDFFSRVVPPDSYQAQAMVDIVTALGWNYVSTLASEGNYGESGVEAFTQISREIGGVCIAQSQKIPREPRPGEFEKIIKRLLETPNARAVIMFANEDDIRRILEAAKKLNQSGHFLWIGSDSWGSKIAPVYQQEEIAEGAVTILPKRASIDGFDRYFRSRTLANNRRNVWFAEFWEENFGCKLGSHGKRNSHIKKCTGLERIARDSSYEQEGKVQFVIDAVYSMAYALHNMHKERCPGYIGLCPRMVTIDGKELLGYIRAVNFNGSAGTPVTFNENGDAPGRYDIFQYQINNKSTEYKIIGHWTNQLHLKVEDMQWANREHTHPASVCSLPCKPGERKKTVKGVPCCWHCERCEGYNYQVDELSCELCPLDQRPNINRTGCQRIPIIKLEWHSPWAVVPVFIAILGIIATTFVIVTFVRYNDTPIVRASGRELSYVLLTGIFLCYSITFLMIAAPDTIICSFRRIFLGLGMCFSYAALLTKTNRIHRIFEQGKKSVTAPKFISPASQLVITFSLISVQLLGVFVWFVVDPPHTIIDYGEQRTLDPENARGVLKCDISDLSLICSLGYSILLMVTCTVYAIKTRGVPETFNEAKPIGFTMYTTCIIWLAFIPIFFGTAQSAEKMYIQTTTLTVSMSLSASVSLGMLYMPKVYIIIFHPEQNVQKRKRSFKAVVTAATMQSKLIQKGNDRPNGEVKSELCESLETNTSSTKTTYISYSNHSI
row,SMILES,z-score
1,O=C1c2ccccc2C(=O)N1CCCCSc1nc2ccccc2o1,-0.155
2,CC1CCc2c(sc3nc(CN4CCN(S(=O)(=O)c5ccccc5[N+](=O)[O-])CC4)[nH]c(=O)c23)C1 (stereo not given),-0.269
3,O=C(NN=C1C2CC3CC(C2)CC1C3)c1cccc(S(=O)(=O)N2CCOCC2)c1,0.288
4,Cc1nn(C)c(C)c1CN(C)S(=O)(=O)c1ccc(F)cc1,-0.128
5,CCOC(=O)/C(C#N)=C/c1cc2ccccc2nc1Cl,-0.3
6,O=C1NC(c2ccc(Br)cc2)=N/C1=C/c1ccco1,-0.286
7,CCOC(=O)C1=C(C)NC(=O)NC1c1ccsc1 (stereo not given),0.00268
8,COc1ccc(NC(=O)CCS(=O)(=O)c2ccc3c(c2)CCCN3C(C)=O)cc1Cl,-0.13
9,COc1ccc(CNC(=O)C(OC(=O)c2ccco2)c2ccc(OC)cc2)cc1 (stereo not given),-0.178
10,CCNC(=O)NC(=O)C(C)OC(=O)c1oc2ccc(OCC)cc2c1C (stereo not given),1.56
11,O=C(NCCCn1ccnc1)C1CC2CCC1C2 (stereo not given),-0.00499
12,CCOc1ccc(Cn2c3ccc(OC)cc3c3nc4ccccc4nc32)cc1OC,-0.0527
13,CC(C)CNC(=O)c1ccccc1NC(=O)c1ccccc1N(C)S(=O)(=O)c1ccccc1,0.173
14,CC1CC2(CCCC2)N(C(=O)c2ccccc2)Cc2ccccc21 (stereo not given),-0.259
15,Cc1cc2cc(C#N)c(NCCNC(=S)NCCCN3CCOCC3)nc2cc1C,0.0244
16,COc1ccccc1N1CCN(C(=O)CSc2nnc(NC(=O)C3CCC3)s2)CC1,-0.511
17,CC1CCCC(N2CCN(C(=O)c3cccc(F)c3)CC2)C1 (stereo not given),-0.358
18,CSc1ccc(/C=N/NC(=O)CNc2cccc3ccccc23)cc1,0.3
19,CCc1ccccc1N1CC23C=CC(O2)C(C(=O)O)C3C1=O (stereo not given),0.331
20,CCCC(=O)Nc1ccc2c(c1)nc(CN1CCCC1)n2C,-0.187
21,O=C(Nc1nc2ccccc2s1)c1cnccn1,0.198
22,CCOc1ccc(C(=O)Nc2cnn(Cc3ccc(Cl)c(Cl)c3)c2)cc1,-0.23

row,SMILES,z-score
1,O=C(Nc1cccc(C(F)(F)F)c1)c1cccnc1N1CCCC1,-0.38
2,COc1ccc(OC)c(N2C(=O)CC(C(C)c3ccccc3)C2=O)c1 (stereo not given),0.00323
3,CCNC(=O)/C(=C\c1ccc2c(c1)OCO2)NC(=O)c1ccc(Br)cc1,-0.165
4,O=C(N/N=C/c1ccc(O)cc1)/C(=C/c1ccccc1)CCO,-0.0513
5,Cc1ccc(CSc2nc3ccccc3c(=O)n2Cc2ccco2)cc1,-0.135
6,Cc1ccc(C2CC(=O)NC(SCCC(C)C)=C2C#N)cc1 (stereo not given),0.189
7,COc1cc(-c2nnc(SCc3cc(=O)oc4cc(O)c(O)cc34)o2)cc(OC)c1OC,-0.37
8,CCN(Cc1ccccc1)C(=O)C1CCN(Cc2ccc(OC)c(OC)c2OC)CC1,-0.00879
9,CCOC(=O)c1[nH]c(C)c(C(=O)N(C)Cc2ccccc2)c1C,0.89
10,Cc1cccc2cc(CN(Cc3ccco3)C(=O)Nc3cccc(C#N)c3)c(Cl)nc12,-0.186
11,CC(=O)c1cccc(NC(=O)NC(C)c2ccncc2)c1 (stereo not given),0.208
12,CC1CN(c2nc(-c3ccc(Br)cc3)nnc2-c2ccccc2)CC(C)N1 (stereo not given),1.79
13,COCCNC(=O)CSc1nc2cc(OC)c(OC)cc2c(=O)n1Cc1ccc(OC)cc1,0.134
14,Cc1noc(/C=C/c2ccco2)c1S(=O)(=O)N1CCC(C(=O)NC(C)c2ccccc2)CC1 (stereo not given),-0.435
15,COc1cccc(/C(O)=C2\C(=O)C(=O)N(c3ccccn3)C2c2ccccc2OC)c1 (stereo not given),0.637
16,Nc1c(C(=O)Nc2cccc(Cl)c2Cl)sc2nc(-c3cccnc3)ccc12,-0.269
17,O=[N+]([O-])c1cccc(C=Nc2cc3c(cc2Br)OCCO3)c1,-0.172
18,CC(C)(C)CC(=O)NC(=S)NCCc1ccccc1,0.337
19,CCOC(=O)c1cnc(SCc2nc(N)nc(Nc3ccc(F)cc3)n2)nc1N,0.602
20,Cc1cccc(-n2c(O)c(C=Nc3c(C)n(C)n(-c4ccccc4)c3=O)c3ccccc3c2=O)n1,-0.137
21,Cn1c(=O)n(CCN2CCOCC2)c(=O)c2c1nc1n2CCN1c1ccccc1,0.384
22,O=C(NCc1nc2ncc(Br)cc2[nH]1)c1ccccc1,-0.272

row,SMILES,z-score
1,COc1ccc(S(=O)(=O)N2CCCC2C(=O)Nc2ccc(C)cc2)cc1 (stereo not given),0.0913
2,CC(C)Nc1nnc(SCC(=O)Nc2ccc(F)cc2)s1,0.0806
3,Cc1cc(C)c2cc(CN(Cc3nnnn3C3CCCCC3)CC3CCCO3)c(=O)[nH]c2c1 (stereo not given),0.415
4,Cc1sc2ncnc(SCC(=O)NNC(=O)COc3cccc4ccccc34)c2c1C,0.336
5,CC(C)c1nc(-c2ccccc2)c(-c2ccccc2)[nH]1,-0.0702
6,Cc1ccc(C)c(Cn2c(C(=O)OC(C)C)cc3c2ccn3C)c1,0.64
7,CN(C)S(=O)(=O)c1cccc(NC(=S)N/N=C/C(c2ccccc2)c2ccccc2)c1,0.384
8,CC1(C)NC(=O)N(CCOc2cccc(Cl)c2Cl)C1=O,-1.07
9,C=CCc1cc(Cl)ccc1OCCOCCNCCOC,0.218
10,Cc1c(N=Cc2ccc(Cl)o2)c(=O)n(-c2ccccc2)n1C,-0.202
11,CC(C)=C1C2C=CC1C1C(=O)N(c3ccc4c(c3)OCO4)C(=O)C21 (stereo not given),0.577
12,COC(=O)c1cc(C(=O)Nc2nnc(CC(C)(C)C)s2)cc([N+](=O)[O-])c1,0.0219
13,Cc1onc(-c2ccccc2Cl)c1C(=O)OCC(=O)c1ccccc1,-0.213
14,CCOC(=O)C1Cc2ccccc2C(=O)O1 (stereo not given),0.177
15,O=c1cc(-c2ccncc2)oc2ccccc12,-0.149
16,O=C(Nc1ccc(F)cc1)Nc1cc(OCC(F)(F)F)cc(OCC(F)(F)F)c1,-0.712
17,COc1ccc(S(=O)(=O)N2CCCC(C(=O)N3CCN(C)CC3)C2)cc1C (stereo not given),-0.202
18,CCOc1ccc(S(=O)(=O)NCc2cccs2)cc1,0.106
19,COc1ccc(S(=O)(=O)N(C)CC(=O)N2CCN(Cc3ccccc3)CC2)cc1C,-0.0728
20,CCCn1nc2ccccc2c1P(=N)(N1CCOCC1)N1CCOCC1,0.581
21,COc1ccc(-n2cnc3cc(NCc4ccco4)ccc32)cc1,-0.49
22,COC(=O)c1cc(C(=O)Nc2cc(C)ccn2)cc([N+](=O)[O-])c1,-0.407

row,SMILES,z-score
1,CCN(CC)Cc1ccccc1Sc1ccccc1,0.577
2,O=C(NC1CCCc2ccccc21)C1CCC(CNS(=O)(=O)c2cccc3nsnc23)CC1 (stereo not given),0.316
3,CN1CCN(S(=O)(=O)c2ccc3ccccc3c2)CC1,-0.316
4,CCOC(=O)c1c(N2C(=O)C3C4C=CC(O4)C3C2=O)sc2c1CCCC2 (stereo not given),-0.431
5,COc1ccccc1CC(=O)Nc1ccc2c(c1)CCC2,-0.00744
6,Cc1nnc(NC(=O)CSc2nnc(-c3ccc(S(=O)(=O)N4CCCC4)cc3)n2C)s1,-0.316
7,CCOC(=O)NC1(C(F)(F)F)C(=O)N(Cc2ccccn2)C2=C1C(=O)CC(C)(C)C2 (stereo not given),0.367
8,CCOC(=O)c1sc2nc(CC(=O)OC)nc(NCCN3CCOCC3)c2c1C,-0.0547
9,CCCCOC(=O)CSC(=S)N(C)Cc1cccs1,-0.535
10,CCOc1ccc(-n2cnnn2)cc1S(=O)(=O)N1CCCCC1,0.0187
11,C=C(C)CSc1nnc(-c2ccc(C)cc2)n1N,-0.212
12,CCOCCOC(=O)COC(=O)c1ccccc1NC(=O)c1ccccc1,-0.606
13,CC(OC(=O)CN(C)S(=O)(=O)c1ccc(Cl)cc1)C(=O)Nc1cccc(Cl)c1 (stereo not given),-0.0599
14,C=CCN1C(=O)CN=C1Nc1ccccc1,0.0847
15,CC(C)CN1C(=O)CC(Sc2ccccc2C(=O)O)C1=O (stereo not given),0.523
16,CSc1nc2ccccc2n1C(=O)NC1CCCCC1,-0.0515
17,COc1ccccc1-n1c(=O)oc2ccc(Cl)cc2c1=O,-0.0846
18,Clc1ccc(-c2cn3c(n2)-c2ccccc2C3)cc1Cl,-0.0744
19,CCC1=NN(C(=O)Cc2ccc(OC)c(OC)c2)C(O)(C(F)(F)F)C1 (stereo not given),0.0791
20,N#Cc1c(N)nc(SCC(=O)NCCc2ccccc2)c(C#N)c1-c1cccs1,-1.31
21,CS(=O)(=O)Nc1ccc2c(c1)nc1n2CCOC1,-0.149
22,Cc1ccc(-c2nn(-c3ccccc3)cc2/C=N/NC(=O)CSc2nnc(C)n2-c2ccccc2)cc1,-0.143

row,SMILES,z-score
1,O=C(c1ccc2c(c1)[nH]c(=S)n1c3ccccc3nc21)N1CCN(c2ncccn2)CC1,0.89
2,Cc1onc(-c2c(Cl)cccc2Cl)c1C(=O)c1c[nH]c(C(=O)NC2CC2)c1,-0.52
3,S=C(NCc1ccco1)Nc1cccc(Cl)c1,0.899
4,C/C(=N/NC(=O)C1CC1(c1ccccc1)c1ccccc1)c1ccco1 (stereo not given),-0.0527
5,CCOc1ccccc1-c1cc(-c2ccccc2)nc2c1c(=O)n(C)c(=O)n2C,-0.409
6,O=C(COC(=O)c1ccccc1)Nc1cccc(S(=O)(=O)NC2=NCCCCC2)c1,0.132
7,CC(C)NC(=O)CSc1nc(Cc2cccs2)nc2ccccc12,0.317
8,COc1ccccc1N1CCN(C(=O)/C=C/c2ccc(C)cc2)CC1,-1.07
9,N#C/C(=C/c1cccs1)c1nc2ccccc2[nH]1,-0.0455
10,COC(/C=C/Nc1ccc(C)c(C)c1)=C(C#N)C#N,-0.179
11,COc1ccccc1N1CC(O)=C(c2nc3ccccc3s2)C1=N,0.0242
12,CCOC(=O)c1ccc2c(c1)N(CC)/C(=C\C=C1/SC(=S)N(CC)C1=O)N2CC,-2.55
13,COc1ccc(C2(C(=O)NC(C)C)CCCC2)cc1OC,0.579
14,c1ccc(-c2cnc(SCCN3CCOCC3)n2CC2CCCO2)cc1 (stereo not given),0.204
15,CC(C)(C)c1ccc(-c2nc(NCc3cccnc3)c3ccccc3n2)cc1,-0.213
16,CCn1c(SCC(=O)NNC(=O)c2ccccc2)nnc1-c1ccncc1,0.254
17,CCOC(=O)C(C(C)=O)=C1SC2CS(=O)(=O)CC2S1 (stereo not given),-0.38
18,CC(C)CNC(=S)NNC(=O)c1ccccc1OC(F)F,-0.091
19,COc1cccc(C(=O)N(CN2CCCC2=O)c2cccc(Cl)c2)c1,-0.159
20,CC(=O)Nc1ccc(C(=O)Nc2nc(-c3cc(C)n(Cc4ccccc4)c3C)cs2)cc1,-0.188
21,COc1cccc(-c2noc(C3CCCN(C(=O)Cc4ccccc4)C3)n2)c1 (stereo not given),-0.51
22,CCOC(=O)C1CCN(C(=O)CNS(=O)(=O)c2ccc(Br)s2)CC1,0.199
